We go through 54 compounds from PubChem BioAssay (NCI).

For the experiment, the system named is NCI-H322M lung. The experiment in a line: growth of human tumour cells (NCI), 48 h.

Where “and” joins values, the source holds several entries; their conditions need not be identical. Equal entries are not always repeated.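 A five-concentration, 48-hour dose response in 96-well plates underlies each endpoint, interpolated linearly between surrounding concentrations. At the GI50, growth is halved. TGI: total growth inhibition.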

Regarding `N#Cc1c(N)nc2n[nH]c(N)c2c1-c1ccccc1`, the TGI is greater than 71.4 µM.
Consider `Cc1ccc2oc3c(ccc(=O)n3C)c(=O)c2c1`, for which the TGI was greater than 100 µM.
In the case of `COc1cccc(-c2[nH]c3cc4c(cc3c(=O)c2C(=O)O)OCO4)c1`, the TGI is greater than 100 µM.
As to `O=C(O)Cn1ccc(=O)c2c([N+](=O)[O-])cccc21`, the TGI was greater than 100 µM.
On to `CCOC(=O)C1=C(C)N(CC(C)C)C2(O)C(OC)CC(=O)C3C(=O)N(c4ccccc4)C(=O)C132` (stereo unspecified), for which the TGI is greater than 100 µM.
For the compound `COC(=O)C1=Nc2ccc(F)cc2/C1=C/c1sc(=S)[nH]c1O`, the GI50 was 0.445 µM and the TGI was greater than 75.6 µM.
Consider `COC(=O)c1ccccc1/C=C1\Cc2ccc3ccccc3c2C1C` (stereo unspecified), for which the TGI is greater than 100 µM.
The same measure, in the same setting: for `CCCCC1Cc2cc(OC)ccc2-c2n1c1cc(OC)ccc1[n+]2C` (stereo unspecified) (tested in a mixture with another compound) the value was 57.8 µM.
On to `C=C(C)[C@@H]1CC[C@]2(C(=O)n3ccnc3)CC[C@]3(C)[C@H](CC[C@@H]4[C@@]5(C)CCCNC(C)(C)[C@@H]5CC[C@]43C)[C@@H]12`, for which the GI50 was 2.94 µM and the TGI came to 14.9 µM.
Take `CC1(C)CC(O)CC(C)(C)N1.CC1(C)CC(O)CC(C)(C)N1.CC1(C)CC(O)CC(C)(C)N1.CC1(C)CC(O)CC(C)(C)N1.Cl.[Ti]`: the GI50 was greater than 100 µM and the TGI is greater than 100 µM.
For `Nc1c(C(=O)c2ccccc2)nnc2ccccc12`, the TGI is greater than 100 µM.
`OC1CSCCSCCCSCCSC1`: the TGI is greater than 100 µM.
`CC(C)(CC1(C)NC(=O)NC1=O)OCc1ccccc1` (stereo unspecified) came in with a TGI greater than 100 µM.
In turn, `O=C([O-])C1([n+]2c(-c3ccccc3)cc(-c3ccccc3)cc2-c2ccccc2)CC1` displayed a TGI greater than 100 µM.
`COC(=O)c1cc2ccccc2c2nc3ccccc3c(Cl)c12` had a TGI greater than 100 µM.
The compound `Nc1nc2c(c(=O)[nH]1)NC(CCNc1ccc(C(=O)O)cc1)CN2` (stereo unspecified) had a TGI greater than 100 µM.
The compound `COC(=O)[C@]1(C)[C@H]2C[C@H]3O[C@H]4[C@H](O)[C@@H](O)OC(CC(O)C(C5=CC(=O)OC5)C(C5=CC(=O)OC5)C(O)CC56CCCCC7[C@@H](C)[C@H](C[C@H]8[C@](C)(C(=O)OC)[C@H](O)CC[C@]78C)O[C@H]([C@@H](O)[C@H](O)O5)[C@H]6O)(CCCCC([C@@H]3C)[C@]2(C)CC[C@@H]1O)[C@H]4O` (stereo partly specified) had a TGI of 0.404 µM.
Same read-out and setting: the result for `O=C(O)Cc1ccc(Oc2nc3ccccc3nc2-c2ccccc2)cc1` reads greater than 100 µM.
`O=C(Nc1nc2c(s1)CCc1c-2c(Br)n(Cc2ccccc2)c1Br)c1ccccc1`: the GI50 is 3.63 µM and the TGI was greater than 100 µM.
The compound `Cc1cc(OC(=O)c2c(C)cc(OC(=O)c3c(C)cc(O)cc3O)cc2O)cc(O)c1C(=O)O` came in with a TGI greater than 100 µM.
Turning to `Clc1ccc(Cn2cc(/C=N/n3cnnc3)c3ccccc32)cc1`, the TGI was greater than 100 µM.
As to `O=c1c2ccccc2n2cnc3ccc(NCCNCCO)c1c32`, the TGI turned out to be 5.41 µM.
Consider `Cc1nn2c(-c3nc4cc(Cl)c(Cl)cc4[nH]3)c(-c3ccc(F)cc3)nc2s1`, for which the GI50 was 2.47 µM and the TGI was greater than 25.1 µM.
As for `FC(F)(F)c1cnc(N/N=C(/c2ccccc2)c2ccccn2)c(Cl)c1`, the TGI came out at 21 µM.
On to `O=C(Nc1cccc(-n2cc(-c3ccncc3)c(-c3ccc(O)c(Cl)c3)n2)c1)Nc1ccc(Cl)c(Cl)c1`, for which the GI50 was 2.5 µM and the TGI was found to be 9.71 µM.
In turn, `CC(=O)O[C@H]1C[C@@H](OC(C)=O)[C@@](C)(O)[C@@H]2[C@@H](OC(C)=O)[C@@]3(O)[C@H](/C=C(/CCl)[C@H]4O[C@H]4[C@@H](OC(C)=O)[C@@]12C)OC(=O)[C@@H]3C` registered a TGI greater than 25 µM.
The compound `O=c1[nH]nc(Cc2ccccc2)n1C1CC1` had a TGI greater than 100 µM.
Consider `C1CCN2CC3CONC3C2C1` (stereo unspecified), for which the TGI was greater than 100 µM.
The compound `Nc1ncnc2sc(Nc3ccccc3)nc12` registered a TGI greater than 100 µM.
On to `CN(CCCNC(=O)c1c2ccc3ccccc3c2nn1C)CCCNC(=O)c1c2ccc3ccccc3c2nn1C`, for which the TGI is 26 µM.
`COc1cc(S(=O)(=O)Nc2ccc(-c3csc(/N=C\c4cccs4)n3)cc2)ccc1Cl` displayed a TGI greater than 100 µM.
Turning to `CCN(CC)C(=S)SSCCO`, the GI50 was greater than 100 µM and the TGI is greater than 100 µM.
As for `CCOc1cc2c(cc1O)CC[C@@H]1[C@@H]2CC[C@]2(C)[C@@H](O)CC[C@@H]12`, the TGI came out at 58.4 µM.
Compound `O=C(/C=C/c1ccc(Cl)cc1)c1ccc(Cl)s1` came in with a TGI greater than 100 µM.
As for `O=C1C2C(C(=O)N1CC[Se][Se]CCN1C(=O)C3C(C1=O)[C@H]1C=C[C@@H]3C1)[C@H]1C=C[C@@H]2C1` (stereo partly specified), the GI50 was 0.467 µM and the TGI stood at 3.73 µM.
As to `CC/C(=C(/c1ccc(/C=C/C(=O)O)cc1)c1ccc2[nH]ncc2c1)c1ccc(F)cc1Cl`, the GI50 was 15.8 µM and the TGI was 30.8 µM.
`N/C(=N\N=C/c1cc([N+](=O)[O-])cc([N+](=O)[O-])c1O)NO`: the TGI was greater than 100 µM.
`CC1=NN(C(=O)c2ccc(C)cc2)C(=O)C1N=Nc1ccccc1C(=O)O` (stereo unspecified) returned a TGI greater than 100 µM.
Turning to `COc1ccc2nc(-c3ccc(O)cc3)ccc2c1`, the TGI is greater than 100 µM.
With `C=CC1(O)CCCC=C1COCc1ccccc1` (stereo unspecified), the TGI is greater than 100 µM.
As for `COc1ccc(C(=O)/C=C/c2ccc(OCc3ccccc3)c(OC)c2)cc1OC`, the GI50 was 3.44 µM and the TGI amounted to 51.4 µM.
Regarding `COc1cc2c3c(n(CCCN4CCSCC4)c(=O)c2cc1OC)-c1cc2c(cc1C3=O)OCO2`, the GI50 was greater than 100 µM and the TGI was greater than 100 µM.
With `C=C(Cl)C(Cl)(CBr)CCC(Br)C(C)(C)Cl` (stereo unspecified), the TGI was 3.26 µM and 4.91 µM and 6.83 µM.
`CC(C)=NNc1ncnc2nc[nH]c12` showed a TGI greater than 50.1 µM.
`CN(C)CCNC(=O)c1cccc2cc3ccc4ccccc4c3nc12` displayed a TGI of 1.27 µM.
The same measure, in the same setting: for `CCN(CCCl)c1cc(CN(C)C)cc(NC(=O)c2cc(C(=O)Nc3cc(CN(C)C)cc(N(CC)CCCl)c3)n(C)n2)c1` the value was 3.46 µM.
Consider `CC(=O)Oc1ccc(/C=C/C(=O)NCCOC(=O)/C=C/c2ccc(OC(C)=O)c(OC(C)=O)c2)cc1OC(C)=O`, for which the TGI is greater than 100 µM.
The compound `Brc1ccc(-c2nc(-c3ccc(Br)cc3)n(-c3ccccc3)n2)cc1` had a TGI greater than 100 µM.
The compound `CC(C)=CC(=O)CC(=O)C(=O)NCCNC(=O)C(=O)CC(=O)C=C(C)C` had a TGI greater than 50 µM.
Take `O=C(Nc1ccc(Cl)c(C(F)(F)F)c1)C(=O)c1c(O)c2ccccc2oc1=O`: the TGI is greater than 100 µM.
`CON(C)C(=O)C(C)NC(=O)OC(C)(C)C` (stereo unspecified) had a TGI greater than 100 µM.
In turn, `CCOC(=O)[C@H]1Nc2c(cccc2[N+](=O)[O-])C2c3ccccc3CC21` (stereo partly specified) returned a TGI greater than 100 µM.
The same measure, in the same setting: the result for `O=S(=O)(c1ccc2ccccc2c1)N1CCN(S(=O)(=O)c2ccc3ccccc3c2)CC1` reads greater than 100 µM.
Regarding `Oc1c(I)cc(Cl)c2cccnc12`, the GI50 was 4.37 µM and 21.1 µM; the TGI is 41.9 µM and 60 µM.
